Results: paper PMC4336329 (PLoS ONE, 2015)
The whole screen tested about 310,000 compounds, of which about 14,000 (4.5%) showed an effect of 50% or more. The effect is printed as a negative number. Some of the results follow. Where a SMILES comes first, the peptide text is derived from it. The star is where a group is joined. Boc = CC(C)(C)OC(=O)*

The compounds below were run against human ether-à-go-go-related gene (hERG) potassium channel (human, UniProt Q12809) (assay: primary screen, population patch clamp on CHO cells stably expressing hERG).
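Further: peak tail current of the secondary pulse compared with the same well before compound.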

human ether-à-go-go-related gene (hERG) potassium channel, sequence (Q12809 whole entry, looked up): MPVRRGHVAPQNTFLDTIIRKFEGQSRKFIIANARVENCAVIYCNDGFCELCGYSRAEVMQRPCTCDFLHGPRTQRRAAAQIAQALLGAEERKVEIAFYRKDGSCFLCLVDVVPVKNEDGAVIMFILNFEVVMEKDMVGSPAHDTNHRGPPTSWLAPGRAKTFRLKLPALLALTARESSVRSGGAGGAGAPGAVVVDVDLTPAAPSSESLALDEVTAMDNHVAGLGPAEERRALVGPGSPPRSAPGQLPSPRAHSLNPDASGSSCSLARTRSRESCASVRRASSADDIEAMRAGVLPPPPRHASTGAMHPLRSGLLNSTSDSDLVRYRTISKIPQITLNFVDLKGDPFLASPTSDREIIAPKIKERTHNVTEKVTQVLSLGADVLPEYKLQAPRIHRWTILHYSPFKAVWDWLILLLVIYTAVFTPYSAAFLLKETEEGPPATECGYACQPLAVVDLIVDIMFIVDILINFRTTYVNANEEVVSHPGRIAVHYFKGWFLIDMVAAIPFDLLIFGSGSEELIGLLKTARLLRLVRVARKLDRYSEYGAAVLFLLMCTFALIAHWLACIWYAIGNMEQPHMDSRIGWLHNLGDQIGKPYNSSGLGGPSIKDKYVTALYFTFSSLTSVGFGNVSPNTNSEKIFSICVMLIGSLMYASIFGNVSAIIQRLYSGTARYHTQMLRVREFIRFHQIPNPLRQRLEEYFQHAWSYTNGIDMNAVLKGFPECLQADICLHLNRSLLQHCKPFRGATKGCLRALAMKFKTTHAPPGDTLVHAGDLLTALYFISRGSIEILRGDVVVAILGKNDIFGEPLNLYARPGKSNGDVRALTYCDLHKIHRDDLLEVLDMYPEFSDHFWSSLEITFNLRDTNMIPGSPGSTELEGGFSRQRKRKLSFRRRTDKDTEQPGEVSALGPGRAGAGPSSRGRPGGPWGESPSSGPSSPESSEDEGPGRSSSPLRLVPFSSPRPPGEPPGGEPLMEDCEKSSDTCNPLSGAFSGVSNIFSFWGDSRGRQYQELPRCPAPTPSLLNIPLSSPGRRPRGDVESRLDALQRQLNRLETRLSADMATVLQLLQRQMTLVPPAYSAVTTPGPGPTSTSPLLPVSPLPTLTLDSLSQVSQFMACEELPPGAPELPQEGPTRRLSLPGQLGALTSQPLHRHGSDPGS

Compound	hERG current change (%, negative = inhibition) at 10uM
Cc1ccccc1C(=O)NNC(=O)CCCCC(=O)NNC(=O)c1ccccc1C	8.16%
COC(=O)CSc1cc(C)nc2ccc(OC)cc12	1.44%
CSCC[C@H](NC(=O)c1cc([N+](=O)[O-])ccc1Cl)c1nc2ccccc2[nH]1	-45.4%
NC12CC3CC(C1)CC(CO)(C3)O2	8.54%
COc1ccc(NC(=O)C2CCCN(S(=O)(=O)c3c(C)[nH]c(=O)[nH]c3=O)C2)cc1Cl (stereo not shown)	11.4%
O=C(Nc1ccc(Cl)cc1C(=O)N1CCCC1)c1cccc([N+](=O)[O-])c1	-12%
CC(=O)c1cccc(NC(=O)CSc2ccc(-c3ccccn3)nn2)c1	-13.6%
CN(CC(=O)NC1CCN(Cc2ccccc2)CC1)S(=O)(=O)c1ccc(Cl)cc1	-40.2%
COc1ccc(/C=C2\Oc3cc(OCC(=O)N4CCC[C@H]4CO)ccc3C2=O)c(OC)c1	2.85%
Cc1ccoc1C(=O)NCCCNC(=O)c1occc1C	20.4%
Cc1ccc2nc(N/N=C/c3ccco3)cc(C)c2c1	-64.3%
Cn1ncc([N+](=O)[O-])c1C(=O)Nc1ccc(-c2ccccc2)cc1	14.1%
CCO[C@@H]1OC(C(=O)NCc2nc3ccccc3[nH]2)=C[C@H](C2CCCCC2)[C@H]1CCCO	-7.48%
CCOc1ccc(S(=O)(=O)N2CCN(Cc3ccc4c(c3)OCO4)CC2)cc1OCC	-3.85%
CCOC(=O)C1Nc2c(F)cc(C)cc2C2C=CCC12 (stereo not shown)	15.5%
O=C(Cc1csc(NC(=O)Nc2cccc(Cl)c2)n1)NCc1cccnc1	-53.8%
COc1ccc(OC)c(/C=N/NC(=O)c2cccc3ccccc23)c1	10.9%
Cc1csc(NC(=O)CSc2nnc(-c3cccs3)n2C)n1	-60.5%
O=C(NCC1COc2ccccc2O1)c1cc2ccccc2o1 (stereo not shown)	-2.7%
COc1ccc(C(=O)OC(C)CN2CCOCC2)cc1.Cl (stereo not shown)	-1.81%

Compound	hERG current change (%, negative = inhibition) at 10uM
CCC(C)C(NC(=O)OC(C)(C)C)C(=O)NC(CC(C)C)C(N)=O (stereo not drawn) (Boc-Ile-Leu-NH2; configuration not given here)	7.22%
O=c1ccc(Oc2nc(N3CCOCC3)nc(N3CCOCC3)n2)n[nH]1	2.3%
Nc1c(C(=O)CSc2nccn2-c2ccc(Cl)cc2)c(=O)[nH]c(=O)n1C1CC1	17.5%
Clc1ccc(CN2CCSCC2)cc1Cl	12.5%
Cc1nc(N2CCOCC2)nc2c1CCC2	7.62%
CCCOC(=O)CC1C(=O)NCCN1Cc1ccccc1C (stereo not shown)	16.2%
O=C(CCCc1nc2ccccc2s1)Nc1ccc(N2CCOCC2)cc1	25.7%
CCOC(=O)c1ccccc1NC(=O)c1ccc2nccnc2c1	-18%
O=C1NC(Cc2ccccc2)c2nc3cc(F)ccc3c(=O)n2-c2cc(Cl)ccc21 (stereo not shown)	-1.97%
CCOc1ccc(-c2nnn(CC(=O)N3CCN(c4ccc(OC)cc4)CC3)n2)cc1OCC	3.36%
CCCNC(=O)CCNC(=O)c1ccc(C(C)(C)C)cc1	-9.09%
CCc1noc(C)c1C(=O)Nc1cc(S(=O)(=O)N2CCOCC2)ccc1OCC(F)(F)F	12.9%
O=C(Cn1cnc2ccccc2c1=O)N1CCOCC1	1.45%
N/C(=N\OC(=O)CCCOc1ccccc1)c1ccccn1	5.84%
O=[N+]([O-])c1ccc([C@H](O)[C@H](CO)N=Cc2ccccc2O)cc1	8.19%
COc1cccc(NC(=O)Nc2c(C)n(C)n(-c3ccccc3)c2=O)c1	3.91%
CCOc1ccc(S(=O)(=O)n2nnc3ccccc32)cc1C(C)C	18.2%
COc1ccc(NS(=O)(=O)c2ccc(C)c(C(=O)NCC(c3ccco3)N(C)C)c2)cc1 (stereo not shown)	-15.2%
O=C(NCc1ccco1)C1CCN(C(=O)c2cc3sccc3n2Cc2ccc(F)cc2)CC1	-68.5%
O=C(NC12CC3CC(CC(C3)C1)C2)N1CCC(O)CC1	14%

Compound	hERG current change (%, negative = inhibition) at 10uM
CN1CCCN(Cc2nc(-c3ccc(Cl)cc3)no2)CC1	-72.6%
CC1CCCCN1S(=O)(=O)c1cnc(Cl)c(Br)c1 (stereo not shown)	-16.8%
Cc1cc(-c2csc3nc[nH]c(=S)c23)cc(C)c1C	27.1%
O=C(NCc1ccco1)[C@@H]1CSC2c3ccccc3C(=O)N21 (stereo partly shown)	9.79%
CC(=O)c1c(C)[nH]c(C(=O)Nc2cc(S(=O)(=O)N3CCCCC3)ccc2C)c1C	2.24%
O=C(CSc1nnc(-c2ccco2)o1)c1ccc(O)cc1O	33.9%
Cc1ccc(S(=O)(=O)NCc2cccnc2)cc1C(=O)N1CCCC1	20.3%
Cc1nnc(SCC(=O)O)s1	-0.959%
CC(C)c1c(C(=O)N/N=C/c2ccco2)nnn1-c1nonc1N	0.0472%
CCN(Cc1ccccc1)C(=O)CSc1ccccc1C(=O)O	17.2%
Cc1cc(OCCNCCO)cc(C)c1Cl	-0.939%
CC(C)CN(C(=O)C1CC1)C1CCS(=O)(=O)C1 (stereo not shown)	-1.65%
CCOC(=O)Cn1c(-c2cccnc2Cl)nc2ccccc21	7.46%
Cc1cccnc1NC(=O)CNC(=O)c1ccccc1	-2.29%
CCOC(=O)c1cc(C)nn1-c1nc(Cl)cc(OC)n1	-38.3%
CCOC(=O)C(NC(=O)c1ccccc1)(OCc1ccccc1)C(F)(F)F (stereo not shown)	-6.55%
N#Cc1ccc(/C=N/NC(=S)Nc2ccc(S(=O)(=O)N3CCOCC3)cc2)cc1	28.2%
CCCC(c1nnnn1CCOC)N1CCN(c2nc3ccccc3s2)CC1 (stereo not shown)	-66.2%
